According to the RNAGym collection of RNA variant scans (doi:10.7554/elife.90254):
The source gives no read counts; variants with many changes may rest on few reads.

B1: LINE1-full (parent)
chain: UACGUAGGUGGUUUUCCCCUGAUAGUGCUAAGGGGGCCUGGAAGUUUGGACUGGGCAGAGCUCAACACAGCGUGGCAAAGUGGCUGUGGCUAGACUGCCUCUCUGGAUUCCUCGUCACUCAGCAGGGCAUCUCUGAGAGAAAUGCC

Variants of: B1
Assay: self-cleavage, relative activity (ratio to wild type); higher = more cleavage; in vitro, sequencing; the parent is a self-cleaving ribozyme

Row | Variant | self-cleavage
1 | A2G C76U A78U U109C | 1.21
2 | A2G C76U G83A | 0.55
3 | A2G G4A A77G U112A | 0.78
4 | A2G G7U U9A A30G | 1.18
5 | A2G G7U U26C G35A G125A A142G | 0.24
6 | A2G G8A A42G U130C | 0.34
7 | A2G G8C A77G | 0.75
8 | A2G G8C G53A U62A A78G A117U | 0.08
9 | A2G G8C U14C A31U U47C U52A A64G G70A U104A | 0.47
10 | A2G G10A A22G A117G | 0.86
11 | A2G G11A G93U A94G | 0.16
12 | A2G G11A U46C A117G A141G U143C | 1.02
13 | A2G G21A G49A A136G | 0.6
14 | A2G G25A A57U A129G | 0.49
15 | A2G G27A U39C C84G C99U U102A A136U U143C | 0.07
16 | A2G G34A U45C A124G A136U | 0.77
17 | A2G G34C A138G | 1.25
18 | A2G G36A A64G C68A A77G G97A | 0.03
19 | A2G G41A A43G | 0.77
20 | A2G G54A A67G A117U | 0.5
21 | A2G G105U U115C | 0.35
22 | A2G G125U A136G A141G | 0.89
23 | A2G U5A U12A U47A G48A U85A | 0.2
24 | A2G U5A U15A C37G G106U U130A | 0.83

Row | Variant | self-cleavage
25 | A2G U5A U15C U73C | 1.08
26 | A2G U5C A30U U143C | 0.75
27 | A2G U5C A78G | 0.96
28 | A2G U9A A24G U46C U47A U100A A138G A142G | 0
29 | A2G U9A U29A G53A A142G | 1.07
30 | A2G U9A U73C G127U | 1.21
31 | A2G U9C A31U A43G | 1.06
32 | A2G U9C A142G | 0.54
33 | A2G U9C G72A A141G | 1.46
34 | A2G U9C U20C A59G G72U G126A | 0.27
35 | A2G U9C U108C A142U | 0
36 | A2G U12A U26C U96C U119A G126C | 0
37 | A2G U12C A43G A140G | 0.35
38 | A2G U12C G36A G83U U115C A140G | 0.68
39 | A2G U12C G74A U85C G114A U134C A140G A142G | 0.28
40 | A2G U12C U39C | 0.41
41 | A2G U12G U52A C90U | 0.11
42 | A2G U13A U15C U26C A65G A107G U109A | 0
43 | A2G U13A U47C A64U | 0.71
44 | A2G U13C A64G | 0.8
45 | A2G U13C A124G | 1.15
46 | A2G U13C A138G | 0.8
47 | A2G U13C A142G G144A | 0.94
48 | A2G U13C G33A | 0

Row | Variant | self-cleavage
49 | A2G U13C G83A U115A | 0.51
50 | A2G U13C U15C U47C A57G | 0.85
51 | A2G U13C U23A C71U U102C | 0.31
52 | A2G U13C U47A | 1.53
53 | A2G U13C U47C C71G U104A | 0.64
54 | A2G U13C U62C | 0
55 | A2G U13C U62C A142G | 0
56 | A2G U13C U91A | 0.42
57 | A2G U14A A69G A129U | 0.4
58 | A2G U14C A43G U45A U132G | 2.4
59 | A2G U14C A107G A136G | 1.41
60 | A2G U14C C51U U112C | 0.24
61 | A2G U14C G54A A69U U73A G74A | 0
62 | A2G U14C U45A A50G U87C | 1.31
63 | A2G U14C U115A U130G | 1.48
64 | A2G U14G U143C | 0.82
65 | A2G U15A G36A G127A | 0.75
66 | A2G U15A G54A A64C A65U U119C | 0.16
67 | A2G U15A U39C U119C A140G | 0.84
68 | A2G U15C C118U | 0.86
69 | A2G U15C U39C | 1.07
70 | A2G U15C U100A | 0.29
71 | A2G U20C U47C U119A U143A | 0.78
72 | A2G U20C U73C U134A | 0.68

Row | Variant | self-cleavage
73 | A2G U20C U130C G144A | 1.46
74 | A2G U20G G48U U73C U100A | 1.05
75 | A2G U26C C116U A121C | 0
76 | A2G U26C G54A A136G | 1.29
77 | A2G U26C G75U G88U U108A | 0.13
78 | A2G U39A A57U U73C | 0.25
79 | A2G U39C A43G U91A U130C | 0.8
80 | A2G U45A A64G A65G | 0
81 | A2G U45A A69G U119C A136G G139A | 1.15
82 | A2G U45A A77G | 1.61
83 | A2G U45C A79G | 0.42
84 | A2G U45C U108C G125U | 1.15
85 | A2G U46A U52A C113U A140G | 0.76
86 | A2G U46C G54A U96A | 0.08
87 | A2G U46C G60A A64C | 0.27
88 | A2G U47A A78G A129U A142G | 0.54
89 | A2G U47A A141G | 0
90 | A2G U47A U115A | 0.68
91 | A2G U47C A50G | 0.27
92 | A2G U47C A94G | 0
93 | A2G U47G U112C | 2.42
94 | A2G U52A A64G | 0.4
95 | A2G U52C U143C | 1.19
96 | A2G U62A U130C A140U | 0.26

Row | Variant | self-cleavage
97 | A2G U73C A94G A140G | 1.02
98 | A2G U73G A107U | 0.92
99 | A2G U81A A129G A141U | 1.18
100 | A2G U81A A140G | 1.41
101 | A2G U85C G144A | 0.77
102 | A2G U87A A136G | 0.08
103 | A2G U87A G88A | 0.18
104 | A2G U91A A138U | 0.77
105 | A2G U91C U102A A138G | 0.33
106 | A2G U91C U112A | 0.74
107 | A2G U96C C123G | 0.52
108 | A2G U100A A140G | 0.18
109 | A2G U100C G126A | 0.31
110 | A2G U104C U112A A141G | 1.18
111 | A2G U108A A140G | 0.78
112 | A2G U115C A121G | 2.63
113 | A2G U119A U143C | 1.31
114 | A2U A24G C71U | 0.61
115 | A2U A43G U62C U134A | 0
116 | A2U A59G U87C | 0
117 | A2U A59U U73A U104A U109A | 0.55
118 | A2U A77G U96C | 0.18
119 | A2U A121U A140G | 0.77
120 | A2U C51U U104C A142U | 1.47

Row | Variant | self-cleavage
121 | A2U G8A C18U U45C U104A A141G U143G | 1.18
122 | A2U G93A A121G | 0.05
123 | A2U G93A U134A | 0.05
124 | A2U U5C U52C U134C | 0
125 | A2U U9A A64G | 0.34
126 | A2U U9A U20C A69G | 0.79
127 | A2U U9C U112G | 0.71
128 | A2U U9G U52A | 1.02
129 | A2U U12C U14C U52A A78G U143G | 0.62
130 | A2U U13C U15C A121C | 2.17
131 | A2U U13G U87C | 0.2
132 | A2U U15C A140G | 0.9
133 | A2U U15C G34A U52A U85C | 0.28
134 | A2U U20A A22G A78U A94G | 0.97
135 | A2U U20C A24G G27A U39C A129U | 0.57
136 | A2U U20C U104C U108C | 0.38
137 | A2U U29G A121G | 2.38
138 | A2U U46C U52A A64U A141G | 0.29
139 | A2U U62C C133U | 0.13
140 | C3A A6C U12C U39A | 0.89
141 | C3A A59U U100A A141G | 0.28
142 | C3A A59U U134A A141G | 0.55
143 | C3A A65G A129U | 0
144 | C3A C51A U115A G127A | 0.95

Row | Variant | self-cleavage
145 | C3A C71G U96C | 0.21
146 | C3A G10A U20C A107G | 1.5
147 | C3A G97A A107G A129G | 0.1
148 | C3A U12C A24G | 1.45
149 | C3A U14C U119A U132C | 0.89
150 | C3A U15G G36A A57G C76U G86U | 0.08
151 | C3A U26C A65U A78U U91A G114U | 0.08
152 | C3A U29C A94G | 0.16
153 | C3A U52C A59U | 0.38
154 | C3A U62C A65G | 0.1
155 | C3A U96A U104A | 0.16
156 | C3G G11A A30G | 0.53
157 | C3G U12G U96C | 0.29
158 | C3U A22G A78G C101G | 1
159 | C3U A22G U62C A107G | 0
160 | C3U A22G U96C | 0.44
161 | C3U A24U G27A U85A U87A A138G | 0.09
162 | C3U A30G G32A G33A A136G | 0.94
163 | C3U A30U U39A | 0.73
164 | C3U A31G A59G | 0.15
165 | C3U A43G A107U U112C | 0.54
166 | C3U A43G U47C A50U A67G | 0
167 | C3U A57G G127A | 0.74
